# The supplement of paper PMC8728848
# The other results are listed elsewhere or left out.
# B1: OVGAL11 (Ovis aries), AAF64320 (protein)
# chain: MDSLPNPYLQSVSLTVCYMVKIKANLLSAFGKNPELQVDFGTGTGQGGNIPFRFWYCDGMVVMNTFTDGSWQKEEKVLTDAFVPGQPFELQFLVLEKEYQVFVKNKPICQFAHRLPLQSVKMLDVRGDIVLTSVDTL
# Assays:
# Test in all cases: glycan array binding signal (z-score within array); higher = stronger binding
# Settings in all cases: glycan notation: IUPAC condensed, linker removed
# Gal(a1-3)Gal = target: Gal(a1-3)Gal
# Outline: (§1)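 The binding signal is a Z-score computed within each array. Data were drawn from 3228 arrays in the Consortium for Functional Glycomics database, restricted to those with a known protein sequence. Scores were averaged over arrays of the same protein sequence at different concentrations or buffers, and over linkers, and negative values can be taken as non-binding.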
# Gal(a1-3)Gal(b1-3)Glc = target: Gal(a1-3)Gal(b1-3)Glc
# Outline: as §1
# Gal(a1-3)Gal(b1-3)GlcNAc = target: Gal(a1-3)Gal(b1-3)GlcNAc
# Outline: as §1
# [1] = target: Gal(a1-3)Gal(b1-3)GlcNAc(b1-2)Man
# Outline: as §1
# [2] = target: Gal(a1-3)Gal(b1-3)GlcNAc(b1-2)Man(a1-3)[Gal(a1-3)Gal(b1-3)GlcNAc(b1-2)Man(a1-6)]Man(b1-4)GlcNAc(b1-4)GlcNAc
# Outline: as §1
# [3] = target: Gal(a1-3)Gal(b1-3)GlcNAc(b1-3)GalNAc
# Outline: as §1
# [4] = target: Gal(a1-3)Gal(b1-3)GlcNAc(b1-6)GalNAc
# Outline: as §1
# [5] = target: Gal(a1-3)Gal(b1-3)[Fuc(a1-4)]GlcNAc(b1-2)Man(a1-3)[Gal(a1-3)Gal(b1-3)[Fuc(a1-4)]GlcNAc(b1-2)Man(a1-6)]Man(b1-4)GlcNAc(b1-4)GlcNAc
# Outline: as §1
# Gal(a1-3)Gal(b1-4)Glc = target: Gal(a1-3)Gal(b1-4)Glc
# Outline: as §1
# Gal(a1-3)Gal(b1-4)GlcNAc = target: Gal(a1-3)Gal(b1-4)GlcNAc
# Outline: as §1
# [6] = target: Gal(a1-3)Gal(b1-4)GlcNAc(b1-2)Man
# Outline: as §1
# [7] = target: Gal(a1-3)Gal(b1-4)GlcNAc(b1-2)Man(a1-3)[Gal(a1-3)Gal(b1-4)GlcNAc(b1-2)Man(a1-6)]Man(b1-4)GlcNAc(b1-4)GlcNAc
# Outline: as §1
# [8] = target: Gal(a1-3)Gal(b1-4)GlcNAc(b1-3)GalNAc
# Outline: as §1
# [9] = target: Gal(a1-3)Gal(b1-4)GlcNAc(b1-6)GalNAc
# Outline: as §1
# [10] = target: Gal(a1-3)Gal(b1-4)[Fuc(a1-3)]GalNAc
# Outline: as §1
# [11] = target: Gal(a1-3)Gal(b1-4)[Fuc(a1-3)]GlcNAc
# Outline: as §1
# [12] = target: Gal(a1-3)Gal(b1-4)[Fuc(a1-3)]GlcNAc(b1-2)Man(a1-3)[Gal(a1-3)Gal(b1-4)[Fuc(a1-3)]GlcNAc(b1-2)Man(a1-6)]Man(b1-4)GlcNAc(b1-4)GlcNAc
# Outline: as §1
# Gal(a1-3)GalNAc = target: Gal(a1-3)GalNAc
# Outline: as §1
# Gal(a1-3)GlcNAc = target: Gal(a1-3)GlcNAc
# Outline: as §1
# [13] = target: Gal(a1-3)[Gal(a1-4)]Gal(b1-4)GlcNAc
# Outline: as §1
# [14] = target: Gal(a1-4)Gal(b1-3)GlcNAc(b1-2)Man(a1-3)[Gal(a1-4)Gal(b1-3)GlcNAc(b1-2)Man(a1-6)]Man(b1-4)GlcNAc(b1-4)GlcNAc
# Outline: as §1
# Gal(a1-4)Gal(b1-4)Gal = target: Gal(a1-4)Gal(b1-4)Gal
# Outline: as §1
# Gal(a1-4)Gal(b1-4)GalNAc = target: Gal(a1-4)Gal(b1-4)GalNAc
# Outline: as §1
# Gal(a1-4)Gal(b1-4)Glc = target: Gal(a1-4)Gal(b1-4)Glc
# Outline: as §1
# Gal(a1-4)Gal(b1-4)GlcNAc = target: Gal(a1-4)Gal(b1-4)GlcNAc
# Outline: as §1
# [15] = target: Gal(a1-4)Gal(b1-4)GlcNAc(b1-2)Man(a1-3)[Gal(a1-4)Gal(b1-4)GlcNAc(b1-2)Man(a1-6)]Man(b1-4)GlcNAc(b1-4)GlcNAc
# Outline: as §1
# [16] = target: Gal(a1-4)Gal(b1-4)GlcNAc(b1-3)Gal(b1-4)Glc
# Outline: as §1
# Gal(a1-4)GlcNAc = target: Gal(a1-4)GlcNAc
# Outline: as §1
# Gal(a1-6)Glc = target: Gal(a1-6)Glc
# Outline: as §1
# Gal(b1-2)Gal = target: Gal(b1-2)Gal
# Outline: as §1
# Gal(b1-3)Gal = target: Gal(b1-3)Gal
# Outline: as §1
# Gal(b1-3)Gal(b1-4)GlcNAc = target: Gal(b1-3)Gal(b1-4)GlcNAc
# Outline: as §1
# Gal(b1-3)GalNAc = target: Gal(b1-3)GalNAc
# Outline: as §1
# [17] = target: Gal(b1-3)GalNAc(a1-3)[Fuc(a1-2)]Gal(b1-4)Glc
# Outline: as §1
# [18] = target: Gal(b1-3)GalNAc(a1-3)[Fuc(a1-2)]Gal(b1-4)GlcNAc
# Outline: as §1
# Gal(b1-3)GalNAc(b1-3)Gal = target: Gal(b1-3)GalNAc(b1-3)Gal
# Outline: as §1
# [19] = target: Gal(b1-3)GalNAc(b1-3)Gal(a1-4)Gal(b1-4)Glc
# Outline: as §1
# [20] = target: Gal(b1-3)GalNAc(b1-3)Gal(b1-4)Glc
# Outline: as §1
# [21] = target: Gal(b1-3)GalNAc(b1-3)Gal(b1-4)GlcNAc
# Outline: as §1
# [22] = target: Gal(b1-3)GalNAc(b1-4)Gal(b1-4)Glc
# Outline: as §1
# [23] = target: Gal(b1-3)GalNAc(b1-4)[Neu5Ac(a2-3)]Gal(b1-4)Glc
# Outline: as §1
# Gal(b1-3)GlcNAc = target: Gal(b1-3)GlcNAc
# Outline: as §1
# [24] = target: Gal(b1-3)GlcNAc(a1-3)Gal(b1-4)GlcNAc
# Outline: as §1
# [25] = target: Gal(b1-3)GlcNAc(a1-6)Gal(b1-4)GlcNAc
# Outline: as §1
# Gal(b1-3)GlcNAc(b1-2)Man = target: Gal(b1-3)GlcNAc(b1-2)Man
# Outline: as §1
binder,measurement,setting,value
B1,glycan array binding signal (z-score),Gal(a1-3)Gal,0.099
same,glycan array binding signal (z-score),Gal(a1-3)Gal(b1-3)Glc,-0.398
same,glycan array binding signal (z-score),Gal(a1-3)Gal(b1-3)GlcNAc,-0.267
same,glycan array binding signal (z-score),[1],-0.087
same,glycan array binding signal (z-score),[2],-0.081
same,glycan array binding signal (z-score),[3],-0.12
same,glycan array binding signal (z-score),[4],-0.082
same,glycan array binding signal (z-score),[5],0.059
same,glycan array binding signal (z-score),Gal(a1-3)Gal(b1-4)Glc,-0.097
same,glycan array binding signal (z-score),Gal(a1-3)Gal(b1-4)GlcNAc,-0.086
same,glycan array binding signal (z-score),[6],-0.093
same,glycan array binding signal (z-score),[7],0.112
same,glycan array binding signal (z-score),[8],-0.073
same,glycan array binding signal (z-score),[9],-0.083
same,glycan array binding signal (z-score),[10],-0.14
same,glycan array binding signal (z-score),[11],-0.044
same,glycan array binding signal (z-score),[12],0.001
same,glycan array binding signal (z-score),Gal(a1-3)GalNAc,-0.076
same,glycan array binding signal (z-score),Gal(a1-3)GlcNAc,0.088
same,glycan array binding signal (z-score),[13],-0.197
same,glycan array binding signal (z-score),[14],-0.043
same,glycan array binding signal (z-score),Gal(a1-4)Gal(b1-4)Gal,0.154
same,glycan array binding signal (z-score),Gal(a1-4)Gal(b1-4)GalNAc,-0.076
same,glycan array binding signal (z-score),Gal(a1-4)Gal(b1-4)Glc,-0.104
same,glycan array binding signal (z-score),Gal(a1-4)Gal(b1-4)GlcNAc,-0.116
same,glycan array binding signal (z-score),[15],-0.053
same,glycan array binding signal (z-score),[16],-0.12
same,glycan array binding signal (z-score),Gal(a1-4)GlcNAc,-0.228
same,glycan array binding signal (z-score),Gal(a1-6)Glc,0.612
same,glycan array binding signal (z-score),Gal(b1-2)Gal,-0.23
same,glycan array binding signal (z-score),Gal(b1-3)Gal,-0.03
same,glycan array binding signal (z-score),Gal(b1-3)Gal(b1-4)GlcNAc,-0.063
same,glycan array binding signal (z-score),Gal(b1-3)GalNAc,-0.167
same,glycan array binding signal (z-score),[17],-0.1
same,glycan array binding signal (z-score),[18],-0.059
same,glycan array binding signal (z-score),Gal(b1-3)GalNAc(b1-3)Gal,-0.06
same,glycan array binding signal (z-score),[19],-0.219
same,glycan array binding signal (z-score),[20],-0.187
same,glycan array binding signal (z-score),[21],-0.304
same,glycan array binding signal (z-score),[22],-0.289
same,glycan array binding signal (z-score),[23],1.62
same,glycan array binding signal (z-score),Gal(b1-3)GlcNAc,-0.093
same,glycan array binding signal (z-score),[24],-0.099
same,glycan array binding signal (z-score),[25],-0.11
same,glycan array binding signal (z-score),Gal(b1-3)GlcNAc(b1-2)Man,-0.023
